Measurements from PubChem BioAssay AID2546 (National Center for Advancing Translational Sciences (NCATS), 2010).
In all, about 310,000 compounds went through this assay and about 11,000 (3.5%) were called active. The inconclusive results got no clear call from the source; some entries with a clear call stand among them for comparison. Calls follow the shape of the dose curve; as a rule, active = well fitted inhibition curve with a large enough effect; inconclusive = small, poorly fitted or top-dose-only effect, or effect the other way; inactive = flat fitted curve, though single readings scatter. No potency is given beside an inconclusive call; the fits are too rough.

test: VP16 counterscreen qHTS for inhibitors of ROR gamma transcriptional activity; details: Drosophila S2 Gal4-VP16 UAS-luciferase, luminescence, 20 h; activity, negative = inhibition: at 53.6 µM (top of the series);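 also: Gal4-VP16 expression switched on by copper sulfate through the metallothionein promoter; nearly all actives have a fitted effect of over 50% in size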
% is scaled to controls: 0 for no effect and ±100 for the full control effect; potency is read from the fitted curve at half-maximal effect; tags tell the direction and shape of the fitted curve.

Row | Compound | Potency | activity, negative = inhibition
1 | Cc1sc(NC(=O)c2cc(-c3ccc(Cl)cc3)nc3ccccc23)c(C(N)=O)c1C | inconclusive [inhibitor, single point] | –
2 | O=C(Nc1ccc(F)cc1)Nc1sccc1-c1nc2ccccc2s1 | inconclusive [inhibitor, single point] | –
3 | Cc1cc(C)c(NC(=O)C(C)c2cccc(C(=O)c3ccccc3)c2)c(C)c1 (centres undefined) | inconclusive [inhibitor, single point] | –
4 | O=C(Nc1ccc([N+](=O)[O-])cc1)Nc1ccc(OC(F)F)c(Cl)c1 | active: 12.6 µM | –
5 | CCCOc1ccc(/C=N/NC(=O)C2CCCN2S(=O)(=O)c2ccc(Cl)cc2)cc1 (centres undefined) | inconclusive [inhibitor, single point] | –
6 | CCc1ccc(-c2cc(C(=O)N/N=C/c3ccco3)[nH]n2)cc1 | – | inactive: 2.16% [at 10 µM]
7 | CCC(=O)c1ccc(Oc2nc3c(c(=O)n(C)c(=O)n3C)n2CC)cc1 | – | inactive: -1.68%
8 | S=C(NCCCc1ccccc1)Nc1ccccc1 | active: 3.98 µM | –
9 | O=C(NC(=S)Nc1ncc(Br)cc1Br)c1ccccc1 | active: 17.8 µM | –
10 | COc1ccc(OC)c(S(=O)(=O)N2CCC(C(=O)NCc3ccc4c(c3)OCO4)CC2)c1 | – | inactive: -1.51%
11 | CC(C)[C@@H](OCc1ccccc1)[C@H](C)/C=N\OC[C@@H](O)[C@@H]1O[C@@H]2OC(C)(C)O[C@@H]2[C@H]1O | – | inactive: -6.22% [at 10 µM]
12 | CCC(C)Cn1c(C)nc2ccccc21 (centres undefined) | active: 12.6 µM | –
13 | Cc1cc(C(F)(F)F)nn1CC(=O)NNC(=S)Nc1cccc(Cl)c1 | inconclusive [inhibitor, single point] | –
14 | Cc1cc(C)c(C(N)=O)c(SCC(=O)c2ccc(Cl)cc2)n1 | inconclusive [inhibitor, single point] | –
15 | CCS(=O)(=O)N1Cc2ccccc2CC1C(=O)Nc1nnc(SCc2ccc(F)cc2)s1 (centres undefined) | inconclusive [inhibitor, single point] | –
16 | NC(=O)COC(=O)c1oc2ccccc2c1CSc1ccc(Cl)cc1 | inconclusive [activator, single point] | –
17 | O=C(/C(=C/c1ccc(Cl)cc1)c1nc2ccccc2[nH]1)c1cccs1 | inconclusive [inhibitor, partial curve, poor fit] | –
18 | Nc1nc2ccc(S(=O)(=O)N3CCCCC3)cc2s1 | inconclusive [inhibitor, single point] | –
19 | O=C(Nc1cccnc1)C1CCCN(S(=O)(=O)c2cccc3nsnc23)C1 (centres undefined) | inconclusive [inhibitor, single point] | –
20 | COc1cc2c(cc1OC)CN(CC(=O)Nc1ccc(C)c(S(=O)(=O)N3CCOCC3)c1)CC2 | – | inactive: 3.56%
21 | Fc1ccc(-c2csc(Nc3ccccn3)n2)cc1 | inconclusive [inhibitor, single point] | –
22 | O=C(CSc1nc2ccccc2o1)NCc1ccc2c(c1)OCO2 | – | inactive: 2.39%
23 | Cn1c(-c2cccc3ccccc23)n[nH]c1=S | inconclusive [inhibitor, single point] | –
24 | CN1C(=O)C(N=Nc2ccccc2C(=O)O)N(C)C1=S (centres undefined) | – | inactive: 2.77%
25 | Cc1ccc(-c2nnc(Nc3ccccc3)c3ccccc23)cc1S(=O)(=O)NCC1CCCO1 (centres undefined) | inconclusive [inhibitor, single point] | –

Row | Compound | Potency | activity, negative = inhibition
26 | O=[N+]([O-])c1ccc(NC(=S)N2CCc3ccccc3C2)cc1 | inconclusive [inhibitor, single point] | –
27 | Cc1ccc(C(=O)Nc2cccc(C(F)(F)F)c2)cc1NC(=O)c1nccnc1N | inconclusive [inhibitor, single point] | –
28 | C/C(=N\NC(=O)c1cc(Cl)ccc1O)c1ccc(Br)s1 | active: 2.51 µM | –
29 | O=C(NC(=S)NCc1ccccc1)c1ccc2c(c1)OCO2 | active: 11.2 µM | –
30 | CCCC(=O)Nc1ccc(C(=O)N/N=C/c2ccc([N+](=O)[O-])o2)cc1 | inconclusive [inhibitor, partial curve] | –
31 | O=c1c(-c2ccccc2)nc2cnc(N3CCOCC3)nc2n1C1CC1 | – | inactive: 2.02%
32 | CCOCCCNC(=S)Nc1cc(C)cc(C)c1 | active: 10 µM | –
33 | Cc1ccc(SCCNC(=S)Nc2ccc(C)cc2C)cc1 | active: 7.94 µM | –
34 | CC(Oc1ccc2c(-c3ccccc3)cc(=O)oc2c1)C(=O)NCC(O)c1ccccc1 (centres undefined) | – | inactive: -1.9%
35 | CC1(C)CC2(CC(c3cccs3)c3cc(Cl)c(O)cc3O2)NC(=S)N1 (centres undefined) | inconclusive [inhibitor, single point] | –
36 | Cc1ccc(C(=O)/C=C\Nc2ccc(C)c(C)c2)cc1 | inconclusive [inhibitor, partial curve, poor fit] | –
37 | CCN1CCN(c2cc(C)c3cc(NC(=O)c4ccncc4)ccc3n2)CC1 | – | inactive: -6.25%
38 | COc1cc2c(cc1OC)C(c1cc3ccc(C)cc3[nH]c1=O)N(C(=O)c1ccco1)CC2 (centres undefined) | inconclusive [inhibitor, partial curve] | –
39 | N=c1c2c(n(Cc3ccc(Cl)c(Cl)c3)c3c1CCC3)CCCC2 | inconclusive [inhibitor, single point] | –
40 | CCn1c(C)nc2cc(C(=O)N/N=C(\C)c3ccccc3O)ccc21 | active: 0.631 µM | –
41 | COc1cc(/C=N\NC(=O)c2sc(N)nc2C)cc(OC)c1OC | – | inactive: 0.314%
42 | N=C1C(c2nc3ccccc3s2)=C(O)CN1NC(=O)c1ccc([N+](=O)[O-])cc1 | inconclusive [inhibitor, partial curve, poor fit] | –
43 | CCC(=O)N1CCN(CCN=CC2=C(O)CC(c3ccc(OC)cc3)CC2=O)CC1 (centres undefined) | inconclusive [activator, single point] | –
44 | COC(=O)c1ccccc1NC(=S)NC(=O)CC(C)C | inconclusive [inhibitor, single point] | –
45 | COc1ccc(CN(CC2CCC(C(=O)O)CC2)C(=S)Nc2ccccc2OC)cc1 (centres undefined) | inconclusive [activator, single point] | –
46 | COc1ccccc1NC(=S)NC(=O)c1ccc(Cn2cc(Br)cn2)cc1 | inconclusive [inhibitor, single point] | –
47 | C/C(=N\NC(=S)NCc1ccccc1)c1ccc(Cl)cc1 | active: 0.794 µM | –
48 | COCCCn1c(-c2ccc(Cl)cc2)n[nH]c1=S | active: 12.6 µM | –
49 | Cn1ccs/c1=N\C(=O)Nc1cccc(Cl)c1 | – | inactive: -7.87%
50 | Cc1scc(C(=O)N/N=C/c2ccc(Cl)s2)c1C | active: 12.6 µM | –

Row | Compound | Potency | activity, negative = inhibition
51 | COc1ccc(C(=O)Cc2ccc(OC)c(OC)c2)c(OC)c1 | inconclusive [inhibitor, single point] | –
52 | Cc1ccc(NC(=O)CCCN2C(=S)NC(C)(C)CC2C)cc1 (centres undefined) | inconclusive [inhibitor, single point] | –
53 | CNc1nc(-c2ccc3c(c2)CCN3C(=O)c2ccc(F)cc2)cs1 | – | inactive: 25%
54 | Cc1ccc(SC2CC(=O)N(c3ccc4c(c3)OCCO4)C2=O)cc1 (centres undefined) | inconclusive [inhibitor, single point] | –
55 | COCc1c(C(=O)N2CCN(Cc3ccc(C#N)cc3)CC2)oc2ccccc12 | – | inactive: 2.06%
56 | COC(=O)C(C)NS(=O)(=O)c1ccc(NC(C)=O)cc1 (centres undefined) | – | inactive: 0.643%
57 | CCOC(=O)c1c(CSC(=N)N)n(-c2ccc(Br)cc2)c2cc(Br)c(OC(C)=O)cc12 | inconclusive [inhibitor, single point] | –
58 | CC(=O)Nc1cc(C(=O)N2CCc3ccccc3C2)ccc1Sc1ccc(Cl)cc1 | – | inactive: -9.65%
59 | Cc1ccc(C)c(NC(=O)/C(C#N)=C/c2cn(CC(=O)NCc3ccco3)c3ccccc23)c1 | inconclusive [inhibitor, full curve] | –
60 | CC1CCN(CCCNC(=O)c2coc3nc4ccccc4nc23)CC1 | – | inactive: 5.06%
61 | CCCC(=O)N1CCN(c2nc3ccc(Br)cc3s2)CC1 | inconclusive [inhibitor, single point] | –
62 | Cn1c(CSCc2ccccc2)n[nH]c1=S | inconclusive [inhibitor, single point] | –
63 | Cc1c(C(=O)N2CCOCC2)[nH]c2ccc(OCc3ccccc3)cc12 | inconclusive [inhibitor, single point] | –
64 | COc1ccc(-c2n[nH]c(=S)n2/N=C/C=C/c2ccccc2OC)cc1 | inconclusive [inhibitor, full curve] | –
65 | CCOC(=O)N1CCN(C(=O)c2cc(COc3ccc4ncccc4c3)on2)CC1 | active: 7.08 µM | –
66 | Cc1ccc(-c2cn(-c3ccc(SC(F)F)cc3)c3[n+]2CCC3)cc1 | inconclusive [inhibitor, single point] | –
67 | Cc1cc(/C=N/Nc2nc(N)ncc2[N+](=O)[O-])c(C)n1-c1cccc(C(F)(F)F)c1 | inconclusive [inhibitor, partial curve] | –
68 | O=C(CCN1C(=O)c2cccc3cccc(c23)C1=O)Nc1ccccc1 | – | inactive: -8.17% [at 10 µM]
69 | COc1cccc(/C=N/Nc2ccnc(=O)[nH]2)c1O | active: 8.91 µM | –
70 | O=C(/C=C/c1ccco1)Nc1nc(-c2ccccc2)cs1 | – | inactive: -5.17%
71 | Cc1cc(C(=O)Nc2ccc(Br)cc2)cs1 | inconclusive [inhibitor, single point] | –
72 | Cc1cccc(NC(=S)N2CCCCCC2)c1C | inconclusive [inhibitor, single point] | –
73 | N=c1oc2cc(O)ccc2cc1C(=O)Nc1ccc(F)cc1 | active: 7.08 µM | –
74 | CCCc1nnc2n1N=C(c1ccc([N+](=O)[O-])cc1)CS2 | – | inactive: -1.01%
